Test system: E. coli strain
Test: cefotaxime resistance of E. coli strain containing the evMBL8 mutant gene, growth in liquid medium (OD600)
Format: cell-based
Settings: 30° C., 0.02-2.0 mg/ml cefotaxime, 0.05 mM IPTG, 0.2 mM ZnCl2
Protocol: Also, the cefotaxime resistance of an E. coli strain containing the evMBL8 mutant gene was examined. For this purpose, each of an E. coli strain containing the evMBL8 mutant gene, and an E. coli strain containing no evMBL8 mutant gene, was cultured at 30° C. in 5 ml liquid medium containing 0.05 mM IPTG, 0.2 mM ZnCl2, […] kanamycin and varying concentrations (0.02-2.0 mg/ml) of cefotaxime, while the growth of the E. coli strains was analyzed with a spectrophotometer (OD600) at two-hr intervals.

B1: evMBL8 (protein)
chain: MKVEVLPALTTVAGWGEVPSNGYLVIDDGTKEAAIVDTPFTAIDTEKLADAAGKHGVEPTTVSATHWHWDCDGGNEELVKLESGPEVYGGDGRINLAKEKWLRALAHKIAHLSTLLVESLSVKCPYPGPGHSTDDICYFASKPGGPEPHPVFRGCFIKPCALPEVLDPTADEMAKALLEVLGRLPLDTRVYYGHEYTI
resistance to cefotaxime relative to E. coli strain having no metallo β-lactamase activity: at least 100 times
